Data as given in PubChem BioAssay AID485281 (National Center for Advancing Translational Sciences (NCATS), 2010).
The campaign covered roughly 350,000 compounds. About 260 (0.074%) were called active. Inconclusive results, whose numbers are uncertain, are shown with a selection of clear calls. The call rests on the fitted dose curve; in most records, active means well fitted inhibition curve with a large enough effect; inconclusive means small, poorly fitted or top-dose-only effect; inactive means no such curve, though single readings can be large or run the other way. Where the call is inconclusive, the potency comes from a doubtful curve fit.

biological target: Ferritin light chain (Equus caballus) (UniProt P02791); assay: qHTS Assay for Identification of Novel General Anesthetics; conditions: apoferritin/1-aminoanthracene competitive binding, fluorescence; activity change, negative = displacement: at 77.5 µM (top of the series); further: nearly all actives have a fitted effect of over 20% in size
Sequence of UniProt P02791 (P02791 whole entry, looked up): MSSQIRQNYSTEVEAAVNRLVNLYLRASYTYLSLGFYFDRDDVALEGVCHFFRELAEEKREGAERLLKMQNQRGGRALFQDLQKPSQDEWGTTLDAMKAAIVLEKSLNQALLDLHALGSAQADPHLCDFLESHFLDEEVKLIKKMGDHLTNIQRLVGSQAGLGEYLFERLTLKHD
Outline: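 Probe: 1-aminoanthracene (50% saturated, PBS). Protein: horse-spleen apoferritin, 10 uM. Incubation: 10 min, room temperature. Detection: 380 nm excitation, 535 nm emission. Analysis: normalized response, four-parameter Hill.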
On the % scale 0 is the no-effect control and ±100 the full control effect; potency means the concentration at half of the fitted maximal effect; tags describe the fitted curve by direction and shape.

Row | Structure (SMILES) | Potency | activity change, negative = displacement
1 | COc1cc(/C=C2\SC(=S)N(CCC(=O)Nc3cccc(O)c3)C2=O)cc(OC)c1OC | inconclusive: 35.5 µM [inhibitor, partial curve] | –
2 | CC(C)CNC(=O)c1ccc(Cl)c(Cl)c1 | inconclusive: 25.1 µM [inhibitor, partial curve] | –
3 | O=C(COC(=O)c1n[nH]c2ccccc12)NC(=O)NC1CCCCC1 | inconclusive: 11.2 µM [inhibitor, partial curve] | –
4 | CCOC(=O)c1ccc(NC(=O)CSc2c3c(nc4cc(Cl)ccc24)CCCC3)cc1 | – | inactive: -1%
5 | COc1ccc(/C=C2\SC(=S)N(CCC(=O)N(CCO)Cc3ccccc3)C2=O)cc1OC | – | inactive: -11.7%
6 | CCN(CC)CCCn1c(C)cc2c(c1=O)C(c1ccccc1)C(C#N)=C(N)O2 (configuration not stated) | inconclusive: 20 µM [inhibitor, partial curve] | –
7 | COc1cccc(C2=Nn3c(nnc3-c3ccccc3O)SC2)c1 | inactive | –
8 | CCC1CCCCN1S(=O)(=O)c1ccc(NC(=O)c2cccs2)cc1 (configuration not stated) | – | inactive: -17.6%
9 | COc1ccc(NC(=O)CSc2nc(SC)ns2)cc1 | – | inactive: 0.271%
10 | O=C(Cc1ccccc1)Nc1ccc2oc(=O)ccc2c1 | – | inactive: -4.89%
11 | Cc1cccc2sc(N(CCCN(C)C)C(=O)c3ccc4ncsc4c3)nc12 | – | inactive: -15.5%
12 | CC(=O)NC1CC2CCCC(C1)N2S(=O)(=O)c1cccc(F)c1 (configuration not stated) | inconclusive: 0.794 µM [inhibitor, full curve, poor fit] | –
13 | O=C(Nc1ccc(NC(=O)c2sc3ccccc3c2Cl)cc1Cl)c1ccco1 | – | inactive: -5.33%
14 | CCCN(CCC)C(=O)c1cc2c(=O)[nH]c3ccc(C)cc3c2s1 | inconclusive: 31.6 µM [inhibitor, partial curve] | –
15 | O=C(NCCc1ccccc1Cl)c1sc2ncccc2c1-n1cccc1 | inconclusive: 50.1 µM [inhibitor, partial curve, poor fit] | –
16 | COc1ccc(C)cc1NC1=C(Cl)C(=O)N(C2CCCCC2)C1=O | inconclusive: 39.8 µM [inhibitor, partial curve] | –
17 | Cc1ccc(C(=O)NCC(=O)OCC(=O)c2cc(C)n(Cc3ccco3)c2C)cc1 | inconclusive: 15.8 µM [inhibitor, partial curve] | –
18 | COc1cccc2c1C(=O)c1c(O)c3c(c(O)c1C2=O)C[C@](O)(C(=O)CO)C[C@H]3O[C@@H]1C[C@H](N)[C@H](O)[C@H](C)O1 | – | inactive: 0.961% [at 29.3 µM]
19 | COc1ccc(CN(C)CC(=O)Nc2cc(OC)c([N+](=O)[O-])cc2C)c(OC)c1 | inconclusive: 35.5 µM [inhibitor, single point] | –
20 | COc1ccc(S(=O)(=O)Nc2ccc(S(=O)(=O)Nc3ccc(F)cc3)cc2)cc1C | – | inactive: -15.3%
21 | CCCc1ncc(C(O)c2cccc(OC)c2OC)n1C (configuration not stated) | inconclusive: 39.8 µM [inhibitor, single point] | –
22 | CNS(=O)(=O)c1cccc(C(=O)OCC(=O)Nc2ccc(OC)cc2[N+](=O)[O-])c1 | inconclusive: 39.8 µM [inhibitor, single point] | –
23 | C=CCn1c(SCC(=O)Nc2ccc3c(c2)OCO3)nnc1-c1ccccc1 | inconclusive: 31.6 µM [inhibitor, partial curve] | –

Row | Structure (SMILES) | Potency | activity change, negative = displacement
24 | Cn1cccc1C(=O)NCC1CCCCC1 | inconclusive: 12.6 µM [inhibitor, partial curve] | –
25 | Cc1ccc(C)c(CN2C(=O)c3ccccc3S(=O)(=O)c3ccc(C(=O)NCCCN4CCCC(C)C4)cc32)c1 (configuration not stated) | inconclusive: 20 µM [inhibitor, partial curve] | –
26 | Cc1cc(C(=O)CSc2nncs2)c(C)n1Cc1ccco1 | inconclusive: 44.7 µM [inhibitor, single point] | –
27 | COC(=O)c1cc2sccc2n1Cc1nc(-c2ccc(OC)cc2)oc1C | inconclusive: 10 µM [inhibitor, partial curve] | –
28 | Cc1cccc(NC(=O)NNC(=O)c2ccc3ccccc3c2)c1 | inconclusive: 3.55 µM [inhibitor, full curve, poor fit] | –
29 | Cc1sc2nc(C(C)C)nc(SCC(=O)NCc3ccco3)c2c1C | inconclusive: 28.2 µM [inhibitor, partial curve] | –
30 | CCN(C(=O)c1cc2c(s1)-c1ccccc1S(=O)(=O)C2)c1cc(OC)ccc1OC | inconclusive: 14.1 µM [inhibitor, partial curve] | –
31 | O=C(NCCN1CCN(Cc2ccc([N+](=O)[O-])cc2)CC1)C(=O)Nc1ccccc1 | – | inactive: 6%
32 | COc1ccc(-c2c3c(cc(C)[n+]2[O-])oc2ccc(OC)cc23)cc1 | – | inactive: -11.7%
33 | O=C(COC(=O)c1ccccc1O)Nc1ccc(S(=O)(=O)N2CCCCC2)cc1 | inconclusive: 8.91 µM [inhibitor, partial curve] | –
34 | Cc1cc2c(c(Sc3ccccc3)n1)C(=O)OC2 | – | inactive: 1.08%
35 | COc1cc2c(cc1O)C(Cc1ccc(O)cc1)NCC2 (configuration not stated) | – | inactive: -0.933%
36 | O=C(/C=C/c1cccs1)c1cc(Cl)ccc1O | inconclusive: 28.2 µM [inhibitor, partial curve] | –
37 | CCN(c1ccccc1)S(=O)(=O)c1ccc(NC(=O)C(C)(C)C)cc1 | inconclusive: 12.6 µM [inhibitor, partial curve] | –
38 | Cc1ccc(C)c(NC(=S)N(CCc2nc3cc(C)c(C)cc3[nH]2)Cc2cccnc2)c1 | – | inactive: -7.21%
39 | c1ccc(Nc2nc3ccccc3o2)cc1 | inconclusive: 17.8 µM [inhibitor, partial curve] | –
40 | COc1cc(OC)c(NC(=O)N2CC3CCCN3c3ccccc32)cc1Cl (configuration not stated) | – | inactive: -13.5%
41 | O=C(Nc1ccc(N2C(=O)C3C4C=CC(C4)C3C2=O)cc1)Nc1cccnc1 (configuration not stated) | inconclusive: 50.1 µM [inhibitor, single point] | –
42 | CC1C(NC(=O)/C(=N/OC(C)(C)C(=O)O)c2csc(N)n2)C(=O)N1S(=O)(=O)O (configuration not stated) | – | inactive: 1.94%
43 | Cc1ccc(Cc2cnc(NC(=O)c3cccs3)s2)cc1 | inconclusive: 11.2 µM [inhibitor, partial curve] | –
44 | CC(NC(=O)COC(=O)Cn1cnc2ccccc2c1=O)C1CC2CCC1C2 (configuration not stated) | inconclusive: 39.8 µM [inhibitor, partial curve] | –
45 | Cc1c2c(nc3c(C)cccc13)OC(C)C2 (configuration not stated) | inconclusive: 31.6 µM [inhibitor, partial curve] | –
46 | N/C(=N\N=C/c1ccc(F)cc1)N/N=C\c1ccc(F)cc1 | inconclusive: 12.6 µM [inhibitor, partial curve] | –

Row | Structure (SMILES) | Potency | activity change, negative = displacement
47 | CC(Oc1ccccc1)C(=O)Nc1nnc(C2CCCCC2)s1 (configuration not stated) | inconclusive: 31.6 µM [inhibitor, partial curve] | –
48 | Cc1ccccc1N=C1Nc2ccccc2CS1 | inconclusive: 5.62 µM [inhibitor, full curve] | –
49 | CCc1ccc(-c2[nH]nc3nc(-c4ccc(OC)cc4)cc(C(=O)NCCCOC)c23)cc1 | inconclusive: 1 µM [inhibitor, full curve] | –
50 | CC1CCN(CCCOc2ccc(OCc3ccccc3)cc2)CC1 | inconclusive: 22.4 µM [inhibitor, partial curve] | –
51 | COc1ccccc1CNC(=O)CCC(=O)n1ncc2cc(C)ccc21 | inconclusive: 22.4 µM [inhibitor, single point] | –
52 | NS(=O)(=O)OCCCCCc1ccccc1 | inconclusive: 35.5 µM [inhibitor, partial curve] | –
53 | COC(=O)c1sc(NC(=O)COc2ccc(C)cc2)nc1C | inconclusive: 25.1 µM [inhibitor, partial curve] | –
54 | CC(=O)OCC1OC(Oc2cc(OC(C)=O)c3c(=O)cc(-c4ccc(OC(C)=O)cc4)oc3c2)[C@@H](OC(C)=O)C(OC(C)=O)C1OC(C)=O (some centres not stated) | inconclusive: 28.2 µM [inhibitor, partial curve] | –
55 | CCSc1nc(C2CC2)cc(-c2cccs2)c1C#N | inconclusive: 35.5 µM [inhibitor, partial curve] | –
56 | Cc1cc(C)c2c(-c3ccc(-c4ccc(C(F)(F)F)cc4)cc3)cc(=O)oc2c1 | inconclusive: 15.8 µM [inhibitor, partial curve] | –
57 | Cn1c(Sc2ccccc2Cl)c(C=O)c2ccccc21 | inconclusive: 10 µM [inhibitor, partial curve, poor fit] | –
58 | Cc1cccc(Oc2cc(NC(=O)c3ccccc3)cc([N+](=O)[O-])c2)c1 | inconclusive: 15.8 µM [inhibitor, partial curve] | –
59 | O=S(=O)(c1ccc(OCC(O)CNCc2ccco2)c(Cl)c1)N1CCOCC1 (configuration not stated) | inconclusive: 22.4 µM [inhibitor, partial curve] | –
60 | O=C(Nc1ccc(Cl)cn1)c1ccc(COc2ccccc2Br)o1 | inconclusive: 12.6 µM [inhibitor, partial curve] | –
61 | Cc1ccc(CSCC2Nc3ccc(C(=O)N4CCN(c5ccc(F)cc5)CC4)cc3NC2=O)cc1 (configuration not stated) | inconclusive: 56.2 µM [inhibitor, single point] | –
62 | CCOC(=O)c1ccc(NC(=S)N(CCCN2CCCC2)Cc2ccco2)cc1 | inconclusive: 50.1 µM [inhibitor, single point] | –
63 | CC1(C)SC(=S)N(/N=C/c2cccnc2)C1N(O)C(=O)Nc1ccccc1 (configuration not stated) | – | inactive: -18.7%
64 | O=C(OCC(=O)N1CCN(C(=O)c2ccco2)CC1)c1cc(-c2ccccc2)nc2ccccc12 | inconclusive: 35.5 µM [inhibitor, partial curve] | –
65 | CCS(=O)(=O)c1ncc(Cl)c(C(=O)Nc2ccc(S(=O)(=O)N3CCCC(C)C3)cc2)n1 (configuration not stated) | – | inactive: 7.41%
66 | CCN(CC)C(=O)N1c2ccccc2C=Cc2ccccc21 | inconclusive: 22.4 µM [inhibitor, partial curve] | –
67 | O=C(Nc1ccc(CN2CCCCC2)cc1)c1cc(Br)ccc1Cl | inconclusive: 35.5 µM [inhibitor, single point] | –
